# The list shows a part of the results. These are further read-outs of the screen, such as a control signal, another cell line or another target. No call is given for them. Most of these compounds were active or inconclusive in the main read-out, so they are no random draw.
# Biological target: Chromobox protein homolog 7 (Homo sapiens) (UniProt O95931)
# Test: blockers of CBX7 binding to H3K27me3 peptide – biochemical, AlphaScreen, primary screen (AID 1224903)
# Conditions: AlphaScreen His6-CBX7 / biotin-H3K27me3 peptide binding; measured here: z-score of CBX7 signal; stronger effect = lower value
# Chain of UniProt O95931 (O95931 whole entry, looked up): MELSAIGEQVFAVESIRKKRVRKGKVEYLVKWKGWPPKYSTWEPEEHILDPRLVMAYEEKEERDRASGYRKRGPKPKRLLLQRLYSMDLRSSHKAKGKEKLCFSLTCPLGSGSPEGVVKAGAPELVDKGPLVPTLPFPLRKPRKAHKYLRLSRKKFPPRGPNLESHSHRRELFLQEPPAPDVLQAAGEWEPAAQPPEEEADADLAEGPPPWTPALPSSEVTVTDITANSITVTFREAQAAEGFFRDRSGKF
row,SMILES,z-score
1,Cc1ccccc1NCc1nc2ccccc2n1Cc1ccccc1,-6.6
2,Oc1ccc(Nc2nc(-c3ccccn3)cs2)cc1,-19.8
3,CCN(CC)S(=O)(=O)c1ccc(C(=O)Nc2nnc(C3CC3)o2)cc1,-2.79
4,Oc1cccc2ccc(Nc3ccccn3)nc12,-10.8
5,O=C(O)c1c[nH]c2ccc(S(=O)(=O)N3CCCCC3c3cccnc3)cc2c1=O (stereo not drawn),-8.4
6,O=C(c1ccc2c(c1)N(Cc1ccccc1)CCS2)N1CCN(Cc2ccccc2)CC1,-0.838
7,O=C(Nc1c2c(nc3c1CCC3)CCCC2)c1ccccn1,-11.5
8,Cc1cccc2nc(-c3ccccn3)c(Nc3ccc4c(c3)OCO4)n12,-21.6
9,O=C(Nc1nc(-c2ccccn2)cs1)c1ccc(S(=O)(=O)N2CCOCC2)cc1,-18.2
10,O=C(c1ccc(C#Cc2ccccc2)o1)N1CCN(c2ccccn2)CC1,-5.28
11,COc1ccc(-c2cn(-c3ccc(F)cc3)c(SCC(=O)Nc3cccc(F)c3)n2)cc1OC,-4.67
12,CCCCN(CC)S(=O)(=O)c1ccc(C(=O)Nc2nnc(C3CC3)o2)cc1,-1.67
13,Cc1ccc(-c2nc3ccccn3c2Nc2ccc3c(c2)OCO3)cc1,-5.21
14,COc1ccc(Cc2noc(-c3cc(-c4ccncc4)nc4ccccc34)n2)cc1,-5.79
15,COc1ccc(-c2csc(Nc3ccc4c(c3)OCO4)n2)cc1Br,-11.7
16,Cc1ccc(NC(=O)C2c3ccccc3C(=O)N3CCc4ccccc4C23)nc1 (stereo not drawn),-0.696
17,COc1cc(/C=C/c2cc(C(F)(F)F)[nH]c(=O)n2)ccc1OCc1ccc(Cl)cc1Cl,-15.8
18,COc1cccc(-c2nnc(NC(=O)c3ccc(S(=O)(=O)N(C)Cc4ccccc4)cc3)o2)c1,-15.1
19,CCOc1ccccc1NC(=O)CSc1nccn1-c1ccc(Cl)cc1,-2.42
20,COc1ccccc1C(CCNCc1ccc(OC(C)C)cc1)c1ccc2c(c1)OCO2 (stereo not drawn),-2.33
21,CCOC(=O)c1cnc2ccc(OC)cc2c1Nc1ccc(N(C)C)cc1,-2.61
22,N#Cc1nc(COc2ccc(Cl)cc2)oc1N1CCCCCC1,-3.92
23,Cc1ccc(Nc2nc(-c3ccc(C)c(C)c3)cs2)cc1,-9.51
24,O=C(Nc1ccc2c(c1)OCO2)[C@H](Cc1ccccc1)N1Cc2ccccc2C1=O,-1.63
25,COc1ccc(-c2nc(-c3ccccc3)c(-c3ccc(F)cc3)[nH]2)c(OC)c1C,-0.513
26,Cc1ccc(C)c(-c2csc(Nc3ccc4c(c3)OCO4)n2)c1,-7.2
27,Oc1ccc(-c2nc(-c3ccccc3)c(-c3cccs3)[nH]2)cc1,-3.34

row,SMILES,z-score
1,CCc1cc2c(oc(=O)c3ccccc32)c(CN2CCN(C)CC2)c1O,-12.9
2,CCCCN1CCCc2cc(CN(CCCN3CCOCC3)C(=O)Nc3ccc(CC)cc3)ccc21,-15.1
3,Cc1cccc(Nc2nc(-c3ccccn3)cs2)c1,-16.6
4,COc1ccc(-c2csc(Nc3ccc(N)cc3)n2)cc1,-7.5
5,Cc1nc(C)c(-c2csc(Nc3ccccc3)n2)s1,-10.3
6,COc1ccc(OCCCCCCc2c(C)n[nH]c2C)cc1,-20.2
7,Cc1ccc([N+](=O)[O-])cc1-c1[nH]c(-c2ccc(F)cc2)nc1-c1ccccc1,-0.518
8,CCCN1CCCc2cc(CN(CCCOC)C(=O)Nc3ccc(OCC)cc3)ccc21,-15.1
9,CCCC(=O)NC(c1cccs1)c1cc(Cl)c2cccnc2c1O (stereo not drawn),-2.57
10,COc1cc(OC)cc(C(=O)Nc2nc(-c3ccccn3)cs2)c1,-18.2
11,Cc1cccc(N2CCN(C(=O)c3cc(-c4ccncc4)nc4ccccc34)CC2C)c1 (stereo not drawn),-6.7
12,N#Cc1nc(COc2ccccc2F)oc1N1CCN(c2ccccc2)CC1,-6.59
13,CC1CCCCN1S(=O)(=O)c1ccc(C(=O)Nc2nnc(C3CC3)o2)cc1 (stereo not drawn),-2.8
14,CCc1ccc(C(=O)CC2(O)C(=O)N(Cc3ccccc3C)c3ccccc32)cc1 (stereo not drawn),-6.91
15,Cc1nnc(NC(=O)c2ccc(S(=O)(=O)N3CCCCC3)cc2)o1,-1.3
16,Cc1cc2ncn(CC(O)COCc3ccccc3)c2cc1C (stereo not drawn),-17.9
17,Cc1ccn2c(NC3CCCC3)c(-c3ccccn3)nc2c1,-15.2
18,CCC(=C(c1ccc(OC)cc1)c1ccc(OC)cc1)c1cn(CCN(C)C)c2ccccc12,-4.24
19,C=CCN(CC=C)S(=O)(=O)c1ccc(C(=O)Nc2nnc(COC)o2)cc1,-1.62
20,Cc1cc(C)n(-c2nc3ccccc3nc2Nc2ccc(N3CCCCC3)cc2)n1,-20.7
21,COc1ccc(NC2c3ccccc3C(=O)N2c2ccc(Cl)cc2)cc1 (stereo not drawn),-15.7
22,CCCCn1cnc2cc(NCc3cccc(OC)c3)ccc21,-18.5
23,Cc1ccc(Nc2c(-c3ccccn3)nc3cccc(C)n23)cc1,-21.6
24,COCCN(CCOC)S(=O)(=O)c1ccc(C(=O)Nc2nnc(C)o2)cc1,-1.32
25,Brc1cccc(-c2nc3ccccn3c2Nc2ccc3c(c2)OCCO3)c1,-4.51
26,CC1CCCCN1S(=O)(=O)c1ccc(C(=O)Nc2nc(-c3ccccn3)cs2)cc1 (stereo not drawn),-26.2

# From PubChem BioAssay AID1224903 (Bradner/Qi Labs at DFCI, 2016)
